We go through 53 compounds from ChEMBL document CHEMBL5308541, “MAIP: An Open-Source Tool to Enrich High-Throughput Screening Output and Identify Novel, Druglike Molecules with Antimalarial Activity” (ACS Med Chem Lett, 2023).

Structures are written as SMILES. About 540 (0.36%) of roughly 150,000 compounds showed an effect of 50% or more. This is one part of the list.

In the experiment the test system is Plasmodium falciparum. Description: Primary screen in NF54 nanoGlo assay, in single point, at 2uM, 72h; a lower Z score goes with more inhibition. The format is functional, Erythrocyte. The conditions noted are these: timepoint 72 hour.
On to `CN(C)c1cc(C(F)(F)F)nc(N2CCOC[C@@H]2Cc2c[nH]c3ccccc23)n1`, for which the “% Inhibition” value is -4% and the Z score is listed as 0.67.
The matching figures for `FC(F)(F)CCN1CCC(Nc2cccc(-c3ncon3)c2)CC1`: -1% and 0.21.
The corresponding values for `COc1ccc2[nH]cc(CCNC3CCN(C(=O)c4ccncc4)CC3)c2c1` are 0% and 0.02.
The corresponding values for `O=C(c1ccco1)N1CCC[C@H](Nc2nccc(-c3ccccn3)n2)C1` are -8% and 1.68.
Take `Cn1cc(Cl)c(NC(=O)C2CC2c2ccncc2)n1` (stereo unspecified): the “% Inhibition” value was 6% and the Z score was -1.2.
The matching figures for `Cc1nn(-c2ccc(C(=O)N3C[C@H](C)OC4(CCOCC4)C3)cc2)c(C)c1Br`: -3% and 0.48.
For the compound `c1cc(CNC2CCN(CC3CC3)CC2)cc(N2CCOCC2)c1`, the “% Inhibition” value was -6% and the Z score is recorded as 0.92.
Take `Cc1cc(O)c(Cl)cc1-c1cccc2c(N)ccnc12`: the “% Inhibition” value was determined as 82% and the Z score is -14.53.
With `CCCC1CN(CC(=O)N2CCCCC2)CC1Nc1ccnc(N)n1` (stereo unspecified), the “% Inhibition” value turned out to be 5% and the Z score is on record as -0.9.
On to `CCC[C@H]1CN(c2nc(N)c3cnn(C)c3n2)CCN1CCOC`, for which the “% Inhibition” value is recorded as -8% and the Z score stood at 1.37.
The corresponding values for `COc1ccc(CNCc2c(-c3ccccc3)[nH]c3ccccc23)cc1` are -10% and 1.8.
Regarding `CC1(C)C[C@H](O)c2cccc(NC(=O)c3cnc4n3CCCC4)c2O1`, the “% Inhibition” value was 6% and the Z score was -1.03.
The matching figures for `CN(CCCc1ncc[nH]1)CCN1CCN(c2ccccc2)CC1`: 0% and 0.07.
`Cn1c(NCc2ccc(N3N=C(c4ccccc4)C[C@H]3c3ccccc3)cc2)nc2ccccc21`: the “% Inhibition” value is on record as -11% and the Z score was 1.96.
The corresponding values for `Cc1ccc(-c2ccc3nnc(CCC(=O)N4CCN(c5ccccc5Cl)CC4)n3n2)cc1C` are 0% and 0.04.
The matching figures for `O=C(NCC1CCN(c2ccncc2)CC1)[C@@H]1OCCc2ccccc21`: -2% and 0.35.
The matching figures for `Cc1cc(C(F)(F)F)nc(CCNc2nccc(-c3ccncc3)n2)n1`: -2% and 0.4.
For the compound `O=C(c1onc2c1CCCC2)N1CC[C@@H](Nc2ncnc3ccc(F)cc23)C1`, the “% Inhibition” value was -15% and the Z score was 2.76.
The matching figures for `CCC[C@H]1CN(c2cc(C)nc(-c3ccccn3)n2)CCN1`: 5% and -0.72.
The matching figures for `CN(c1ccccc1)c1ccc(CN2CCN([C@H]3CCNC3)CC2)cc1`: 68% and -13.59.
Turning to `COc1ccc2c(N[C@H]3CCN(C4CCCC4)C3)ncnc2c1F`, the “% Inhibition” value turned out to be 2% and the Z score was -0.45.
On to `C[C@@H](CN1CCCCCC1)NC1CCN(C2CCS(=O)(=O)CC2)CC1`, for which the “% Inhibition” value is 0% and the Z score turned out to be 0.03.
On to `Nc1ccc(N2CCN(c3ncnc4[nH]ncc34)CC2)cn1`, for which the “% Inhibition” value is -18% and the Z score is 3.66.
`Cc1ncn(C)c1C(=O)N1CCN(CC(=O)N2CCCC2)CC1`: the “% Inhibition” value was -13% and the Z score is 1.92.
The matching figures for `Cc1ccc(OC2CN(C(=O)c3cnco3)C2)cc1`: -8% and 1.72.
Consider `Cc1sc2ncnc(-c3cccc(C(=O)N4CCC5CNCC54)c3)c2c1C` (stereo unspecified), for which the “% Inhibition” value is on record as 5% and the Z score is listed as -0.8.
The matching figures for `CC12CC(CN1C(=O)Nc1ccc(CCn3nnc(-c4ccccc4)n3)cc1)C2`: -3% and 0.41.
The corresponding values for `CN(CCn1ccc2ccccc21)Cc1cnc(N2CCOCC2)s1` are -8% and 1.8.
In the case of `CCC(=O)[C@@H]1CCCCN1C(=O)c1ccc2cc(OC)ccc2n1`, the “% Inhibition” value is 11% and the Z score is given as -1.96.
The corresponding values for `CN1CCN(c2cc(NC[C@H]3CN(C4CC4)CCO3)ncn2)CC1=O` are -8% and 1.23.
The corresponding values for `CCn1c(NCc2ccc(OCc3cccnc3)cc2)nc2cc(F)ccc21` are -9% and 1.61.
The corresponding values for `Cc1nccn1-c1ccc(C(C)NC2CCN(c3ccccn3)C2)cc1` (stereo unspecified) are 2% and -0.27.
Consider `Cc1cncc(NC(=O)C(=O)N(c2cccc(N)c2)C2CCCC2)c1`, for which the “% Inhibition” value is -16% and the Z score stood at 2.72.
For `Cc1ncnc(NCCCN2CCN(C)CC2)c1C`, the “% Inhibition” value is on record as -2% and the Z score was found to be 0.4.
Consider `COCCc1noc([C@H](C)NC(=O)c2cc(C)nc3cc(F)ccc23)n1`, for which the “% Inhibition” value was -8% and the Z score is 1.34.
The corresponding values for `Oc1ccc(-c2ncnc3ccccc23)cc1OC(F)(F)F` are -1% and 0.15.
The matching figures for `C[C@H](NC(=O)N1CCC(OC2CCC2)CC1)c1nnnn1C`: -8% and 1.66.
For the compound `c1nc(NCCNc2nc(C3CC3)ns2)c2ccsc2n1`, the “% Inhibition” value is on record as -2% and the Z score came out at 0.37.
The matching figures for `CC(C)(C)OC(=O)N1CCC(C(=O)Nc2ccccc2N2CCN(CCc3ccncc3)CC2)CC1`: 8% and -1.62.
The matching figures for `Cn1cc(C(=O)Nc2cccc(CN3CCC(O)CC3)c2)c([C@H]2CCCNC2)n1`: 9% and -1.56.
The corresponding values for `CN1CCN(C2(CNC3CCN(C(=O)c4ccncc4)CC3)CCCCC2)CC1` are 0% and -0.01.
`CC1(O)CCN(c2cc(N3CCN(CCc4ccccc4)CC3)ncn2)CC1`: the “% Inhibition” value was -1% and the Z score was found to be 0.14.
The corresponding values for `Cc1ccc(F)cc1-c1c(-c2ccccc2)ncn1C[C@H]1CC(=O)N(C2CC2)C1` are -5% and 1.02.
As to `Cc1cccc(N2CCC(NC(=O)c3cc(N4CCOCC4)ccn3)CC2)n1`, the “% Inhibition” value is -11% and the Z score was determined as 1.86.
Take `CN1CCCc2cc(CNc3cnc4ccccc4n3)ccc21`: the “% Inhibition” value is listed as -7% and the Z score was 1.56.
The matching figures for `CCCCN1CCn2nc(CNC(=O)c3ccc4oc(C)cc4c3)cc2C1`: -7% and 1.15.
The matching figures for `O=C(O)c1ccc(-c2c(-c3ccccc3)ncn2CCc2c[nH]c(=O)[nH]c2=O)cc1`: -6% and 1.22.
Turning to `COc1cc(OC)c2cc(C(=O)NCCN3C(C)CCCC3C)[nH]c2c1OC` (stereo unspecified), the “% Inhibition” value came out at 3% and the Z score is -0.59.
The corresponding values for `OC1CN(C2CCC3(CCNCC3)CC2)CC1Cc1ccnc2ccccc12` (stereo unspecified) are -7% and 1.22.
The matching figures for `O=C1NCCCC[C@@H]1Nc1ncnc2c1CCN(C1CCNCC1)CC2`: -5% and 0.95.
For `FC(F)(F)Oc1cccc(N2CC[C@H](NC3CCOCC3)C2)c1`, the “% Inhibition” value is reported as -10% and the Z score was determined as 1.76.
The matching figures for `CN1CCN(CC2(C)CCN(Cc3ccc4cn[nH]c4c3)CC2)CC1`: 9% and -1.62.
As for `O=C(CCc1c(-c2ccc(F)cc2)[nH]c2ccccc12)NCCNC(=O)c1ccn[nH]1`, the “% Inhibition” value was -26% and the Z score is 5.13.

A word on the % Inhibition: it is the drop in the measured response relative to a control, in per cent.
